Patent publication US10112935B2, “Indazolyl thiadiazolamines and related compounds for inhibition of Rho-associated protein kinase and the treatment of disease” (Lycera Corporation, priority 2015, dated 2018)
At least one compound was matched to its structure with a doubt left.

Molecular target: GST-tagged human ROCK2 catalytic domain 1-553 (Homo sapiens (Human), UniProt O75116)
Experiment: Inhibition of Rho-associated protein kinase isoform 2 (LANCE Ultra ULight-CREBtide FRET kinase assay)
Type: biochemical
Settings: selectivity ROCK2 vs ROCK1
Procedure: Exemplary compounds were tested for ability to inhibit Rho-associated protein kinase isoform 1 (ROCK1) and Rho-associated protein kinase isoform 2 (ROCK2). Assay procedures and results are described below.
Protein constructs were purified from a baculovirus expression system. The peptide substrate was fluorescent LANCE® Ultra ULight-CREBtide: […] (PerkinElmer, # TRF0107-D). […] After a 90 minute incubation at room temperature on a shaker table, the kinase reaction was stopped by addition of 10 mM EDTA, and phosphorylation of the substrate was detected by adding 1 nM LANCE® Ultra Europium-anti-phospho-CREB (ser133) antibody (PerkinElmer, # TRF0200-D) and incubating for 60 minutes on a shaker at room temperature. The flurorescence resonance energy transfer (FRET) signals were read and analyzed on an Envision™ 2103 Multilabel Reader (Perkin Elmer).

GST-tagged human ROCK2 catalytic domain 1-553, sequence (O75116 1-553): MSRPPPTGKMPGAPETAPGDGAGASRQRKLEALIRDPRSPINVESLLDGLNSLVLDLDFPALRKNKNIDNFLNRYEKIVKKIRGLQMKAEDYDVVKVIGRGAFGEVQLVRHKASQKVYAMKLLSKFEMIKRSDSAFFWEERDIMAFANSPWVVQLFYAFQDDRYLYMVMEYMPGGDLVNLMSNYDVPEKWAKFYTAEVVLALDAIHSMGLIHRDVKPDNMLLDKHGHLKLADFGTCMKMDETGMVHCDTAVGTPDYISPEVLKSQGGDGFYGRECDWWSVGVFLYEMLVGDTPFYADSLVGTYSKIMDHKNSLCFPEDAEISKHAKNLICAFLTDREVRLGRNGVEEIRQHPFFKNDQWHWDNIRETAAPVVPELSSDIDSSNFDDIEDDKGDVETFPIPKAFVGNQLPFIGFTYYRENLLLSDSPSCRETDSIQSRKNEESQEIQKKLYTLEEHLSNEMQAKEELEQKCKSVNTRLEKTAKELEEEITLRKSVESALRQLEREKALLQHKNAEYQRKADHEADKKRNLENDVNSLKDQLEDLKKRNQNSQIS

With `O=C(Nc1cccc(-c2nnc(Nc3ccc4[nH]ncc4c3Cl)s2)c1)C1CCNCC1` [Example 35AC] the “Selectivity for ROCK2 over ROCK1 (IC50 ROCK1 / IC50 ROCK2)” value (from here on “Selectivity … (IC50 ROCK1 / IC50 ROCK2)”) was greater than 5.
In the case of `CC(=O)Nc1cccc(-c2nnc(Nc3ccc4[nH]ncc4c3)s2)c1` [Example 35CH], the “Selectivity … (IC50 ROCK1 / IC50 ROCK2)” value is reported as less than 5.
In the case of `O=S(=O)(CCO)Nc1cccc(-c2nnc(Nc3ccc4[nH]ncc4c3)s2)c1` [Example 35CJ], the “Selectivity … (IC50 ROCK1 / IC50 ROCK2)” value is reported as greater than 5.
In the case of `CC1(C(=O)Nc2cccc(-c3nnc(Nc4ccc5[nH]ncc5c4Cl)s3)c2)CCCCC1` [Example 35L], the “Selectivity … (IC50 ROCK1 / IC50 ROCK2)” value is reported as greater than 5.
With `O=C(CC(F)(F)F)Nc1cccc(-c2nnc(Nc3ccc4[nH]ncc4c3Cl)s2)c1` [Example 35R] the “Selectivity … (IC50 ROCK1 / IC50 ROCK2)” value was greater than 5.
With `Clc1c(Nc2nnc(-c3cccc(-c4nccn4CCN4CCOCC4)c3)s2)ccc2[nH]ncc12` [Example 39A] the “Selectivity … (IC50 ROCK1 / IC50 ROCK2)” value was less than 5.
For `CC(=O)Nc1cc(C(N)=O)cc(-c2nnc(Nc3ccc4[nH]ncc4c3Cl)s2)c1` [Example 48AB], the “Selectivity … (IC50 ROCK1 / IC50 ROCK2)” value was greater than 5.
`CC(=O)Nc1cc(C(N)=O)cc(-c2nnc(Nc3ccc4[nH]ncc4c3)s2)c1` [Example 48AD] was tested, and the “Selectivity … (IC50 ROCK1 / IC50 ROCK2)” value was greater than 5.
In the case of `CC(=O)Nc1cc(C(=O)O)cc(-c2nnc(Nc3ccc4[nH]ncc4c3)s2)c1` [Example 48AE], the “Selectivity … (IC50 ROCK1 / IC50 ROCK2)” value is reported as greater than 5.
For `CC(=O)Nc1ccc(Cl)c(-c2nnc(Nc3ccc4[nH]ncc4c3Cl)s2)c1` [Example 48G], the “Selectivity … (IC50 ROCK1 / IC50 ROCK2)” value was greater than 100.
In the case of `CC(=O)Nc1cc(C(=O)N2CCNCC2)cc(-c2nnc(Nc3ccc4[nH]ncc4c3Cl)s2)c1` [Example 48U], the “Selectivity … (IC50 ROCK1 / IC50 ROCK2)” value is reported as greater than 5.
With `CC(=O)Nc1cc(C(=O)NCCN(C)C)cc(-c2nnc(Nc3ccc4[nH]ncc4c3Cl)s2)c1` [Example 48V] the “Selectivity … (IC50 ROCK1 / IC50 ROCK2)” value was greater than 5.
In the case of `N#Cc1ccc(-c2cn3cccc(-c4nnc(Nc5ccc6[nH]ncc6c5Cl)s4)c3n2)cc1` [Example 50D], the “Selectivity … (IC50 ROCK1 / IC50 ROCK2)” value is reported as greater than 100.
`CCCCOC(=O)N(c1nnc(-c2cccc(NC(=O)Cc3ccc(F)cc3)c2)s1)c1ccc2[nH]ncc2c1Cl` [Example 53, Butyl (4-chloro-1H-indazol-5-yl)(5-(3-(2-(4-fluorophenyl)acetamido)phenyl)-1,3,4-thiadiazol-2-yl)carbamate] was tested, and the “Selectivity … (IC50 ROCK1 / IC50 ROCK2)” value was greater than 100.
With `CN(C)CCn1cnc2c(-c3nnc(Nc4ccc5[nH]ncc5c4Cl)s3)cccc21` [Example 55, N-(4-Chloro-1H-indazol-5-yl)-5-(1-(2-(dimethylamino)ethyl)-1H-benzo[d]imidazol-4-yl)-1,3,4-thiadiazol-2-amine] the “Selectivity … (IC50 ROCK1 / IC50 ROCK2)” value was greater than 5.
With `Clc1c(Nc2nnc(-c3cccc4c3ncn4CCN3CCCC3)s2)ccc2[nH]ncc12` [Example 56A] the “Selectivity … (IC50 ROCK1 / IC50 ROCK2)” value was greater than 5.
